Measured values from PubChem BioAssay AID1461 (National Center for Advancing Translational Sciences (NCATS), 2008).
Hit rate of the full screen: of about 220,000 compounds, about 2,300 (1%) were called active. Inconclusive results, whose numbers are uncertain, are shown with a selection of clear calls. Calls come from the whole dose curve; as a rule, active = well fitted inhibition curve with a large enough effect; inconclusive = small, poorly fitted or top-dose-only effect, or effect the other way; inactive = no such curve, though single readings can be large or run the other way. No potency is given beside an inconclusive call; the fits are too rough.

target: Neuropeptide S receptor (Homo sapiens) (UniProt Q6W5P4); assay: qHTS Assay for Antagonists of the Neuropeptide S Receptor: cAMP Signal Transduction; conditions: CHO-NPSR cells, cAMP TR-FRET, antagonist mode; series mostly up to 38.3 µM; note: nearly all actives have a fitted effect of over 50% in size
Potency is the fitted concentration of half-maximal effect; tags give direction and shape of the fitted curve.

Sequence of UniProt Q6W5P4 (Q6W5P4 whole entry, looked up): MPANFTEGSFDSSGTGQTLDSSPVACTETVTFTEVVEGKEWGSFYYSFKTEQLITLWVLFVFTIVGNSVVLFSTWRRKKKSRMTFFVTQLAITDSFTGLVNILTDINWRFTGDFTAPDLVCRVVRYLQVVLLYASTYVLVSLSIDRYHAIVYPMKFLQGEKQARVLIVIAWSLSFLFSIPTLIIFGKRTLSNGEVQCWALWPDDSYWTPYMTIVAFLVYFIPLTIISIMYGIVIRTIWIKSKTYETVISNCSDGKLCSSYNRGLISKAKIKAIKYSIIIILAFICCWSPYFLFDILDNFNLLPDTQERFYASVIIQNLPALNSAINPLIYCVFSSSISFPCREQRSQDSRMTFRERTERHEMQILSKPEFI

SMILES	Potency
CCc1nc(SCC(=O)N2CCN(c3ccccc3)CC2)c2oc3ccccc3c2n1	inconclusive [inhibitor, single point]
COc1ccccc1C1=NN(C(=S)Nc2ccccc2)C(c2ccco2)C1 (stereo not drawn)	inconclusive [inhibitor, single point]
CC(=O)c1cc2c(cc1NC(=O)C1CC1)OCO2	inconclusive [inhibitor, single point]
Nc1nc(-c2ccccn2)nc(N)c1Cc1c(F)cccc1Cl	inactive
COc1ccccc1N1C(=O)C=C(Sc2nc(C)cc(C)n2)C1=O	inconclusive [activator, single point]
COc1ccc(Cn2c(O)cc(=O)[nH]c2=O)cc1	inactive
CCOC(=O)c1cccc2c1-c1ccccc1/C2=N/O	inactive
O=C(O)c1ccc(-c2ccccc2Cl)o1	inconclusive [inhibitor, single point]
CCc1ccc(N(C(=O)c2csnn2)C(C(=O)NCc2ccccc2)c2ccco2)cc1 (stereo not drawn)	inconclusive [inhibitor, single point]
O=c1oc2ccc3ccccc3c2cc1-c1nnc(-c2ccccc2)o1	inactive
C/C(Cl)=C/Cn1c(=O)c2c(nc(Br)n2Cc2ccccc2)n(C)c1=O	inconclusive [inhibitor, partial curve]
Cc1csc2c(=O)n(CCO)c(=O)[nH]c12	inactive
c1ccc(Cn2nnnc2C(c2cccs2)N2CCSCC2)cc1 (stereo not drawn)	inactive
Clc1ccc(COn2c(-c3ccc(Cl)cc3Cl)nc3ncccc32)cc1	inconclusive [inhibitor, single point]
C=CCOc1ccc(C2C(C#N)=C(N)N(Nc3ccccc3)C3=C2C(=O)CC(C)(C)C3)cc1OC (stereo not drawn)	inconclusive [inhibitor, single point]
CCN(C(=O)c1ccc(C(C)(C)C)cc1)c1nnc(Cn2nnc3ccccc32)s1	inconclusive [inhibitor, partial curve]
CCN(CC)c1cnn(C/C(=N\OC)c2ccc(Cl)cc2)c(=O)c1Br	inconclusive [inhibitor, single point]
CCC(C(=O)Nc1cc(C)nn1-c1nc(C)cc(C)n1)c1ccccc1 (stereo not drawn)	inconclusive [inhibitor, full curve, poor fit]
CCOc1ccc(CCn2c(-c3ccco3)nc3ccccc3c2=O)cc1OCC	inconclusive [inhibitor, single point]
CN(Cc1ccccc1)Cc1nc2c(c(=O)n(C)c(=O)n2C)n1Cc1ccc(Cl)cc1	inconclusive [inhibitor, partial curve, poor fit]
COc1ccc(/C=N/n2c(=O)[nH]c3c([nH]c4ccc(F)cc43)c2=O)cc1CN1CCCCC1	inactive
CC(=O)c1ccc(-c2cc([C@H]3[C@H]4C=CC[C@@H](C)[C@@H]4C(=O)N3Cc3ccccc3)ccc2F)cc1	inconclusive [inhibitor, single point]

SMILES	Potency
CCCOC(=O)C1C2C=CC(C3CC23)C1C(=O)OCC(=O)c1ccccc1 (stereo not drawn)	inconclusive [inhibitor, single point]
O=C(NC1CCCCC1)C(c1cccs1)N(CCCN1CCOCC1)C(=O)c1ccc(-c2ccccc2)[nH]1 (stereo not drawn)	inconclusive [activator, single point]
CC(C)C(=O)N1CCN(c2ccccc2NC(=O)COc2ccccc2)CC1	inconclusive [activator, single point]
COc1ccccc1-c1nnc2sc(-c3ccc(N(C)C)cc3)nn12	inconclusive [activator, full curve]
O=C(O)COc1ccc2nsnc2c1Cl	active: 12.6 µM
COc1ccc(NC(=S)NC(NC(=O)c2cccc(C)c2)C(Cl)(Cl)Cl)c([N+](=O)[O-])c1 (stereo not drawn)	inconclusive [inhibitor, single point]
O=C(CN1CCN(C(=O)c2ccco2)CC1)N1CCc2[nH]c3ccccc3c2C1	inactive
O=C(CN(C1CCCCC1)S(=O)(=O)c1ccc(F)cc1)Nc1ccc2c(c1)OCO2	inconclusive [inhibitor, single point]
Cn1c(Cn2c3ccccc3c3ccccc32)n[nH]c1=S	inconclusive [activator, single point]
CSc1nc2cc(C)nn2c(-c2ccc(C(C)(C)C)cc2)c1C#N	inconclusive [activator, partial curve]
Cc1ccc(Cn2nnnc2CN2CCC(c3nc4ccc(Cl)cc4[nH]3)CC2)cc1	inconclusive [inhibitor, partial curve, poor fit]
Cc1ccc(C)c(N2CCN(C(=O)c3ccc4nc(-c5ccco5)c(-c5ccco5)nc4c3)CC2)c1	inactive
COc1ccc(C(=O)CSc2nnc(CNc3ccc(C)cc3C)n2Cc2ccco2)cc1	inconclusive [inhibitor, partial curve]
O=S(=O)(Nc1cc(Sc2ncn[nH]2)c(O)c2ccccc12)c1ccccc1	inactive
N/C(Cc1ccc([N+](=O)[O-])cc1)=N\OC(=O)c1ccc2ccccc2c1	inconclusive [inhibitor, single point]
Cc1cnc(C)c(N2CCC(C(=O)NC(C)c3cccs3)CC2)n1 (stereo not drawn)	inconclusive [inhibitor, full curve, poor fit]
CCC(=O)N(CCC(c1ccco1)c1ccccc1OC)Cc1cccs1 (stereo not drawn)	inconclusive [inhibitor, single point]
O=C(/C(N=Nc1cccc(C(F)(F)F)c1)=C(/O)c1cccs1)C(F)(F)F	inconclusive [activator, single point]
O=C(N/N=C/C=C/c1ccccc1)C1CC1(c1ccccc1)c1ccccc1 (stereo not drawn)	inconclusive [inhibitor, single point]
COC(=O)/C=C/c1ccc(-n2cncn2)cc1	inactive
CC(C)(C)c1nnc2sc(SCC(=O)c3ccc(Cl)cc3)nn2c1=O	inconclusive [inhibitor, partial curve]
